Experimental findings from the supplement of paper PMC5790926 are described below.

The test system of test [1] is H5-S-FLU in MDCK-SIAT1 cells. The experiment in a line: IC50 inhibition of H5-S-FLU (H5 HA pseudotyped influenza) infection. On the procedure: (§1)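 MDCK-SIAT1 cells were pretreated for 3 h with two-fold drug dilutions, then exposed overnight to a single-cycle eGFP reporter particle coated with the named glycoprotein; eGFP read on fixed cells. Mostly one titration per compound; only inhibitors are listed.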

The test system of test [2] is E-S-FLU (Zaire C15 EBOV-GP pseudotyped S-FLU) in MDCK-SIAT1 cells. The experiment in a line: IC50 inhibition of E-S-FLU (EBOV-GP pseudotyped influenza) infection. On the procedure: as §1

Each structure is given as a SMILES string. Counter-ions that a name gives are not always drawn. Inhibition of entry of single-cycle reporter particles into MDCK-SIAT1 cells, 3 h drug pretreatment, overnight read-out. IC50, lower = stronger. No active / inactive call; only inhibitors are listed. Mostly one titration per compound.

Consider `CCN(CC)CCO[C@H]1CC[C@@]2(C)C(=CC[C@@H]3[C@@H]2CC[C@]2(C)C(=O)CC[C@@H]32)C1`, for which the “IC50 inhibition of H5-S-FLU” value in test [1] was found to be 49.5 µM. Besides, the “IC50 inhibition of E-S-FLU” value in test [2] is 2.56 µM.
For `NC[C@@H]1O[C@H](C23CC4CC(CC(C4)C2)C3)Cc2c1ccc(O)c2O` the same measures were 15.6 µM and 8.6 µM.
With `O=C1NCCc2[nH]c(-c3ccncc3)cc21`, in test [1], the “IC50 inhibition of H5-S-FLU” value was determined as 15.7 µM. In addition, the “IC50 inhibition of E-S-FLU” value in test [2] was 21.3 µM.
Regarding `Nc1nc(N)c2nc(CNc3ccc(C(=O)N[C@@H](CCC(=O)O)C(=O)O)cc3)cnc2n1` [Aminopterin], the “IC50 inhibition of H5-S-FLU” value in test [1] turned out to be 0.2 µM. In addition, in test [2], the “IC50 inhibition of E-S-FLU” value was 0.2 µM.
For the molecule `COc1cc(NS(C)(=O)=O)ccc1Nc1c2ccccc2nc2ccccc12` [Amsacrine hydrochloride], in test [1], the “IC50 inhibition of H5-S-FLU” value was found to be 6.76 µM. Also, the “IC50 inhibition of E-S-FLU” value in test [2] stood at 7.68 µM.
The like results for `Cc1c(-c2ccc(-c3ccccc3F)cc2)nc2ccc(F)cc2c1C(=O)O` [Brequinar sodium salt hydrate] were, in that order, 1.4 µM and 1.3 µM.
With `Clc1ccc(C(c2ccc(Cl)cc2)[n+]2ccn(CC(OCc3ccc(Cl)cc3Cl)c3ccc(Cl)cc3Cl)c2)cc1` (stereo unspecified) [Calmidazolium chloride], the “IC50 inhibition of H5-S-FLU” value in test [1] worked out at 3.9 µM. Besides, in test [2], the “IC50 inhibition of E-S-FLU” value came out at 2.3 µM.
`CCN(CC)CCCC(C)Nc1ccnc2cc(Cl)ccc12` (stereo unspecified) [Chloroquine diphosphate]: in test [1], the “IC50 inhibition of H5-S-FLU” value is 67 µM. Further, the “IC50 inhibition of E-S-FLU” value in test [2] was determined as 5.44 µM.
Regarding `CN1CCC[C@@H]1CCO[C@](C)(c1ccccc1)c1ccc(Cl)cc1` [Clemastine fumarate salt], in test [1], the “IC50 inhibition of H5-S-FLU” value stood at 58.4 µM. For the same molecule, the “IC50 inhibition of E-S-FLU” value in test [2] was found to be 3.4 µM.
With `CN1CCC[C@@H]1CCO[C@](C)(c1ccccc1)c1ccc(Cl)cc1` [Clemastine], the “IC50 inhibition of H5-S-FLU” value in test [1] was 50 µM. Besides, the “IC50 inhibition of E-S-FLU” value in test [2] turned out to be 4.3 µM.
For `Cc1cc(N)c2ccccc2[n+]1CCCCCCCCCC[n+]1c(C)cc(N)c2ccccc21` [Dequalinium chloride hydrate] the same measures were 12.1 µM and 27.3 µM.
As for `C[C@@H]1O[C@@H](O[C@H]2C[C@@H](O)[C@]3(CO)[C@H]4[C@H](O)C[C@]5(C)[C@@H]([C@@H]6COC(=O)C6)CC[C@]5(O)[C@@H]4CC[C@]3(O)C2)[C@H](O)[C@H](O)[C@H]1O` [Dihydroouabain], in test [1], the “IC50 inhibition of H5-S-FLU” value came out at 5.7 µM. The “IC50 inhibition of E-S-FLU” value in test [2] was 8.3 µM.
As to `O=C(Nc1ccc([N+](=O)[O-])cc1Cl)c1cc(Cl)ccc1O` [Niclosamide], in test [1], the “IC50 inhibition of H5-S-FLU” value was 3.17 µM. Moreover, the “IC50 inhibition of E-S-FLU” value in test [2] worked out at 1.69 µM.
Take `O=[N+]([O-])c1ccc2nc(N3CCNCC3)ccc2c1` [Quipazine, 6-nitro, maleate]: in test [2], the “IC50 inhibition of E-S-FLU” value came out at 29.2 µM.
Regarding `C=CCN1CCc2c(cc(O)c(O)c2Br)[C@@H](c2ccccc2)C1` [R(+)-6-Bromo-APB hydrobromide], the “IC50 inhibition of E-S-FLU” value in test [2] worked out at 90.4 µM.
As to `CCCN1CCc2cccc3c2[C@H]1Cc1ccc(O)c(O)c1-3` [R(-)-Propyl norapomorphine hydrochloride], the “IC50 inhibition of E-S-FLU” value in test [2] worked out at 25.6 µM.
Turning to `O=C(c1ccc(OCCN2CCCCC2)cc1)c1c(-c2ccc(O)cc2)sc2cc(O)ccc12` [Raloxifene HCl], the “IC50 inhibition of H5-S-FLU” value in test [1] was found to be 33.8 µM. Besides, the “IC50 inhibition of E-S-FLU” value in test [2] is 0.4 µM.
As to `Nc1c(S(=O)(=O)O)cc(Nc2ccc(Nc3nc(Cl)nc(Nc4cccc(S(=O)(=O)O)c4)n3)c(S(=O)(=O)O)c2)c2c1C(=O)c1ccccc1C2=O` [Reactive Blue 2], the “IC50 inhibition of E-S-FLU” value in test [2] was 65.8 µM.
As for `NC(=O)c1ncn([C@@H]2O[C@H](CO)[C@@H](O)[C@H]2O)n1` [Ribavirin], in test [1], the “IC50 inhibition of H5-S-FLU” value was determined as 126 µM.
`Cc1nc2sccn2c(=O)c1CCN1CCC(=C(c2ccc(F)cc2)c2ccc(F)cc2)CC1` [Ritanserin]: the “IC50 inhibition of E-S-FLU” value in test [2] was determined as 16.2 µM.
Consider `C[C@@H](CN1CCC(Cc2ccccc2)CC1)[C@@H](O)c1ccc(O)cc1` [Ro 25-6981 HCl], for which the “IC50 inhibition of E-S-FLU” value in test [2] came out at 111 µM.
Take `CC(=O)c1c(O)c(C)c(O)c(Cc2c(O)c3c(c(C(=O)/C=C/c4ccccc4)c2O)OC(C)(C)C=C3)c1O` [Rottlerin]: the “IC50 inhibition of E-S-FLU” value in test [2] was 6.25 µM.
With `N.N.N.N.N.N.N.N.N.N.N.N.N.N.O.O.[Cl-].[Cl-].[Cl-].[Cl-].[Cl-].[Cl-].[Ru+4].[Ru+5].[Ru+5]` [Ruthenium red], in test [2], the “IC50 inhibition of E-S-FLU” value was determined as 141 µM.
`CCCC(C(=O)OCCN(CC)CC)(c1ccccc1)c1ccccc1` [SKF525A HCl]: the “IC50 inhibition of E-S-FLU” value in test [2] amounted to 3.6 µM.
The same measure, in the same setting: to `C=CCN1C[C@H](C)N([C@H](c2ccc(C(=O)N(CC)CC)cc2)c2cccc(OC)c2)C[C@H]1C` [SNC80] belongs 53.2 µM.
As for `O=C(CCCN1CCC2(CC1)C(=O)NCN2c1ccccc1)c1ccc(F)cc1` [Spiperone], in test [2], the “IC50 inhibition of E-S-FLU” value was determined as 52.4 µM.
On to `CC(=O)S[C@@H]1CC2=CC(=O)CC[C@]2(C)[C@H]2CC[C@@]3(C)[C@@H](CC[C@@]34CCC(=O)O4)[C@H]12` [Spironolactone], for which, in test [1], the “IC50 inhibition of H5-S-FLU” value was 33.1 µM. Moreover, in test [2], the “IC50 inhibition of E-S-FLU” value worked out at 30.4 µM.
For the molecule `CCN(CC)CCNC(=O)c1c(C)[nH]c(/C=C2\C(=O)Nc3ccc(F)cc32)c1C` [Sunitinib malate], the “IC50 inhibition of E-S-FLU” value in test [2] is 9.7 µM.
On to `CC/C(=C(\c1ccccc1)c1ccc(OCCN(C)C)cc1)c1ccccc1` [Tamoxifen citrate], for which the “IC50 inhibition of E-S-FLU” value in test [2] amounted to 0.2 µM.
For the molecule `CC/C(=C(\c1ccccc1)c1ccc(OCCN(C)C)cc1)c1ccccc1` [Tamoxifen], the “IC50 inhibition of E-S-FLU” value in test [2] was found to be 1.8 µM.
Take `CC(C)(C)c1ccc(C(O)CCCN2CCC(C(O)(c3ccccc3)c3ccccc3)CC2)cc1` (stereo unspecified) [Terfenadine]: the “IC50 inhibition of E-S-FLU” value in test [2] worked out at 3.37 µM.
On to `CCCCNc1ccc(C(=O)OCCN(C)C)cc1` [Tetracaine hydrochloride], for which the “IC50 inhibition of E-S-FLU” value in test [2] came out at 124 µM.
On the same count and under the same terms, the value for `COc1ccc2cc1Oc1ccc(cc1)C[C@H]1c3cc(c(OC)cc3CCN1C)Oc1c(OC)c(OC)cc3c1[C@H](C2)N(C)CC3` [Tetrandrine] was 1.63 µM; that for `CSc1ccc2c(c1)N(CCC1CCCCN1C)c1ccccc1S2` (stereo unspecified) [Thioridazine hydrochloride] was 6 µM; that for `CNCC[C@@H](Oc1ccccc1C)c1ccccc1` [Tomoxetine] was 29.4 µM.
Consider `CN(C)CCOc1ccc(/C(=C(/CCCl)c2ccccc2)c2ccccc2)cc1` [Toremifene], for which the “IC50 inhibition of E-S-FLU” value in test [2] was determined as 0.151 µM.
With `Nc1nc(N)c2nc(-c3ccccc3)c(N)nc2n1` [Triamterene], the “IC50 inhibition of H5-S-FLU” value in test [1] was determined as 132 µM. Besides, in test [2], the “IC50 inhibition of E-S-FLU” value was determined as 85.2 µM.
As for `CN1CCN(CCCN2c3ccccc3Sc3ccc(C(F)(F)F)cc32)CC1` [Trifluoperazine dihydrochloride], the “IC50 inhibition of E-S-FLU” value in test [2] was 4.4 µM.
Still for that read-out and setting: the value for `O=C(CCCN1CCC(O)(c2cccc(C(F)(F)F)c2)CC1)c1ccc(F)cc1` [Trifluperidol hydrochloride] was 48.9 µM.
`OC(CCN1CCCCC1)(c1ccccc1)C1CCCCC1` (stereo unspecified) [Trihexyphenidyl hydrochloride]: the “IC50 inhibition of E-S-FLU” value in test [2] worked out at 37.3 µM.
Still for that read-out and setting: to `CC(CN(C)C)CN1c2ccccc2CCc2ccccc21` (stereo unspecified) [Trimipramine maleate] belongs 10.1 µM; to `CCN(CC)CCOc1ccc(C(O)(Cc2ccc(Cl)cc2)c2ccc(C)cc2)cc1` (stereo unspecified) [Triparanol], 1.13 µM.
With `Cc1ccc(/C(=C\CN2CCCC2)c2ccccn2)cc1` [Triprolidine hydrochloride], in test [2], the “IC50 inhibition of E-S-FLU” value was determined as 124 µM.
For the molecule `N#C/C(=C\c1ccc(O)c(O)c1)C(N)=S` [Tyrphostin 47], in test [2], the “IC50 inhibition of E-S-FLU” value was found to be 77.8 µM.
For the molecule `COc1cc2ncnc(Nc3cccc(Cl)c3)c2cc1OC` [Tyrphostin AG 1478], the “IC50 inhibition of H5-S-FLU” value in test [1] was 141 µM. Besides, in test [2], the “IC50 inhibition of E-S-FLU” value is 115 µM.
As to `CC[C@]1(O)C[C@@H]2CN(CCc3c([nH]c4ccccc34)[C@@](C(=O)OC)(c3cc4c(cc3OC)N(C)[C@H]3[C@@](O)(C(=O)OC)[C@H](OC(C)=O)[C@]5(CC)C=CCN6CC[C@]43[C@@H]65)C2)C1` [Vinblastine sulfate salt], the “IC50 inhibition of E-S-FLU” value in test [2] was determined as 22 µM.
On to `COC[C@H]1OC(=O)c2coc3c2[C@@]1(C)C1=C(C3=O)C2CCC(=O)[C@@]2(C)C[C@H]1OC(C)=O` (stereo partly specified) [Wortmannin from Penicillium funiculosum], for which, in test [2], the “IC50 inhibition of E-S-FLU” value was found to be 64.7 µM.
For the molecule `Cc1cc(C(C)(C)C)cc(C)c1CC1=NCCN1` [Xylometazoline hydrochloride], the “IC50 inhibition of E-S-FLU” value in test [2] stood at 54.2 µM.
`OCCN1CCN(CC/C=C2/c3ccccc3Sc3ccc(C(F)(F)F)cc32)CC1` [cis(Z)-Flupenthixol dihydrochloride]: the “IC50 inhibition of E-S-FLU” value in test [2] was 7.8 µM.
